In publication PMC4336329 (PLoS ONE, 2015):
The campaign covered roughly 310,000 compounds. About 2,200 (0.71%) showed an effect of 50% or more. The effect is printed as a negative number. Some of the results follow.

Biological target: human ether-à-go-go-related gene (hERG) potassium channel (human, UniProt Q12809)
Experiment: primary screen, population patch clamp on CHO cells stably expressing hERG

Sequence of human ether-à-go-go-related gene (hERG) potassium channel (Q12809 whole entry, looked up): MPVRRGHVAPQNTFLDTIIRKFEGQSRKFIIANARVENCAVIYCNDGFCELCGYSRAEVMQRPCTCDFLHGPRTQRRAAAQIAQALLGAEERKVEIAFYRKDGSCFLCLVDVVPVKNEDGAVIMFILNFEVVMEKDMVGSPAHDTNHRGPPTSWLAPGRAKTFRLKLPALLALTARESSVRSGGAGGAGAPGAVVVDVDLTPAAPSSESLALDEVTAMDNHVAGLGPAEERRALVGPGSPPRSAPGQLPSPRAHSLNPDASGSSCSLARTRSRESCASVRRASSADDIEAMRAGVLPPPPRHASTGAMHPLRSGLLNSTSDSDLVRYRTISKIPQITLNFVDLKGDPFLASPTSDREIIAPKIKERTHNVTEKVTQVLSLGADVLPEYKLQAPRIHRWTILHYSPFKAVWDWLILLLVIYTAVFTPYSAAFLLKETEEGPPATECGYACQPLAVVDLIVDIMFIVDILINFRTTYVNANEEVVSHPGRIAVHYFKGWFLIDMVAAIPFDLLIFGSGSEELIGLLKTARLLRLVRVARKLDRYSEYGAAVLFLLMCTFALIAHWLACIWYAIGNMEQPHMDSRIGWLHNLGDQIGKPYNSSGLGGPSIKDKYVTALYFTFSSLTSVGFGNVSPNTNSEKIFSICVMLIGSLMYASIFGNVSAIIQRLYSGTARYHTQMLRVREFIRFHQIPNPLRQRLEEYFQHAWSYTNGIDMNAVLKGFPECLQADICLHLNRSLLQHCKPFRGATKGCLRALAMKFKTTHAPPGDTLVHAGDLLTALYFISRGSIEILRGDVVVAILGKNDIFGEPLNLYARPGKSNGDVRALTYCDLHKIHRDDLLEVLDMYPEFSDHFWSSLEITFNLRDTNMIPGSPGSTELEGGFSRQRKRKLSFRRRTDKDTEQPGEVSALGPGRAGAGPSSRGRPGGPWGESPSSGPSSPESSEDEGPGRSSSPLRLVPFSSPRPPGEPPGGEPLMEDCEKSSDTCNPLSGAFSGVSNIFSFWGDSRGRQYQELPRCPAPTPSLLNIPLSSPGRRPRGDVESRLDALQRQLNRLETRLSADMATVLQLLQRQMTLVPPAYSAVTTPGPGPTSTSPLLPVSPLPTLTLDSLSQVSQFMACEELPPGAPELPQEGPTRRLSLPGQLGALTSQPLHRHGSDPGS

Compound	hERG current change (%, negative = inhibition) at 1uM
Cc1ccc(/C=N/NC(=O)c2c(C)nc3ccc(Br)cn23)cc1	13.3%
Cc1cc(C(=O)Nc2ccc(S(=O)(=O)N3CCCC3)cc2)no1	10.3%
CCCOC(=O)c1c(-c2ccccc2)nc(CC)c(C(=O)SCC)c1CCC	18.4%
O=C(CSc1nc2ccccc2c(=O)n1-c1ccc(F)cc1)Nc1ccc(C(=O)O)cc1	2.41%
CCOC(=O)c1nc(NCc2cccnc2)c2ccccc2n1	5.16%
O=C(COC(=O)c1cc([N+](=O)[O-])ccc1N1CCOCC1)c1ccc(OC(F)F)cc1OC(F)F	13.7%
C=C1C(C(=O)N2CCOCC2)C1C(=O)N1CCOCC1 (centres unmarked)	10.5%
CCCNC(=O)Cn1nc(C(F)(F)F)c2c1CCCC2	13.5%
Cc1ccc(Cl)cc1N1CCN(C(=O)C2CCCN(S(=O)(=O)c3cnc[nH]3)C2)CC1 (centres unmarked)	12.4%
Cc1ccc2nc(NC(=O)c3ccc(NS(=O)(=O)c4cccs4)cc3)sc2c1	8.33%
CCN(c1ccccc1)S(=O)(=O)c1cccc(C(=O)N(C)CCOc2ccccc2)c1	12.8%
Cc1ccc(S(=O)(=O)N(C)c2ccc3sc(C)nc3c2)cc1	1.46%
COc1ccc(CCN2C(=O)CC(Cc3ccc(Br)cc3)C2=O)cc1OC (centres unmarked)	-1.53%
Cn1c(CNC(=O)CNC(=O)c2ccc(F)cc2)cc(=O)n(C)c1=O	-15.4%
COc1ccc(-c2[nH]ncc2CN2CCCCCCC2)c(OC)c1	-5.32%
CS(=O)(=O)Nc1ccc(C(=O)Nc2ccc3ccccc3c2)cc1	14.3%
C=CCn1c(SCC(=O)Nc2cccnc2Cl)nnc1-c1ccc(C(C)(C)C)cc1	9.68%
CC(C)Oc1ccc(/C(O)=C2/C(=O)C(=O)N(CCN3CCNCC3)C2c2ccc(C(C)C)cc2)cc1 (centres unmarked)	23.3%
CC(C)c1nnc(NC(=O)CCC(=O)NCc2ccc(F)cc2)s1	28.9%
Br.N=C1CCCN1CC(=O)c1cccs1	-5.83%
O=C(Cc1ccccc1)NNc1ccc2ccccc2c1	-1.2%
COC(=O)c1ccccc1NC(=O)COC(=O)CO/N=C(\C)c1ccc2c(c1)OCO2	21.2%
c1coc(-c2nc3nc4ccccc4nc3n2CC2CCCO2)c1 (centres unmarked)	4.02%

Compound	hERG current change (%, negative = inhibition) at 1uM
CN(CC(=O)Nc1ccccc1[N+](=O)[O-])Cc1ccc(Br)cc1	11.5%
COc1ccc(CNC(=O)c2nn(C)c3c2CS(=O)(=O)c2ccccc2-3)cc1	13.4%
CCCCOC(=O)C1=C(C)Nc2ncnn2C1c1cc(OC)ccc1OC (centres unmarked)	0.0597%
COc1cc2nc(N(CCCN(C)C)C(=O)c3ccc(S(=O)(=O)N4CCc5ccccc5C4)cc3)sc2cc1OC.Cl	0.119%
O=C(/C=C/c1ccccc1)Nc1cccc(S(=O)(=O)Nc2ccccc2F)c1	12.2%
CC1(C)CC(NC(=O)c2cccc(Cl)c2)CC(C)(C)N1	12.2%
C=CCN=C1CC(C)(C)CC(=O)/C1=C(/O)CCC(=O)OC	9.05%
CCN(CCCNC(=O)CNC(=O)Cn1cnc2ccccc2c1=O)c1cccc(C)c1	15.7%
CC(C)CCNC(=O)c1ccc(-n2cnc3cccnc32)cc1	14.7%
O=C(CCN1C(=O)c2ccccc2C1=O)C1=NN[C@@H]2C(=O)N(c3ccc(F)cc3)C(=O)[C@H]12	11.3%
CCOc1ccc(OCc2cccc(C(=O)O)c2)cc1	5.81%
Nc1ncc(Br)cc1S(=O)(=O)NCCC(=O)Nc1cccc(Cl)c1	6.21%
COCCN1CCN(C(=O)c2ccc3c(c2)S(=O)(=O)c2ccccc2C3=O)CC1	10.8%
Nc1cc(-c2cccc([N+](=O)[O-])c2)[nH]n1	-2.3%
CCN(CC)C(=O)C(C)OC(=O)c1ccc(O)cc1 (centres unmarked)	2.6%
CC(C)c1nnc(NC(=O)C2CCCCC2)s1	5.88%
CCOC(CNC(=O)c1cccc([N+](=O)[O-])c1)OCC	10.3%
O=C(COC(=O)c1ccc(Br)cc1)NCCN1C(=O)CSC1=O	17.4%
O=C(COc1ccc2c3c(c(=O)oc2c1)CCCC3)N1CCN(c2ccc(F)cc2)CC1	7.61%
Cc1ccc(NC(=O)CSCC(=O)NCCc2ccccc2)c(C)c1	7.16%
N/C(=N\OC(=O)Cc1ccccc1)c1ccc(Br)cc1	8.13%
Cc1ccc(OCC(=O)Nc2ccc(-c3nc4ncccc4o3)cc2)c(C)c1	20.1%
O=C(Cn1nnc2ccccc21)OCC(=O)c1ccc(F)cc1	10.4%

Compound	hERG current change (%, negative = inhibition) at 1uM
CCc1ccc(-c2cn3nc(C)c(C)nc3n2)cc1	9.99%
CCc1c(C)nc(SCC(=O)Nc2ccc3c(c2)OCCO3)[nH]c1=O	10.8%
Cc1ccc(N2C(=O)NC(=O)/C(=C\c3ccc([N+](=O)[O-])o3)C2=O)cc1	12.3%
CCOc1ccc2c(C)c(C)c(=O)oc2c1OCC	3.45%
COc1ccnc(NCc2ccc(Cl)cc2)c1C#N	16.1%
COc1ccc(OC)c2c1sc(=NC(=O)c1cccc(N3C(=O)CCC3=O)c1)n2C	10.9%
O=C(Nc1ccc(Cl)c(Cl)c1)Nc1nccs1	5.62%
CC(=O)N(CCc1cccc(C)c1)Cc1cc2ccc(C)cc2[nH]c1=O	0.292%
CCOCC(=O)Nc1ccc(F)c(F)c1	1.65%
Cc1cccc(-n2ncc3c(NC(C)C)ncnc32)c1	12.7%
COc1ccccc1NC(=O)Nc1nnc(C(C)C)s1	4.9%
Cc1cccc(N2CCN(C(=O)CCNC(=O)Cn3ccc4ccccc4c3=O)CC2)c1C	0.73%
COc1ccccc1NS(=O)(=O)c1cc(-c2cc(C)no2)ccc1OC	8.25%
CCCCCn1c(=O)[nH]c2cc(C(=O)O)ccc2c1=O	16.4%
COc1ccc(C(=O)Nc2c(C)ccc3nsnc23)cc1[N+](=O)[O-]	3.23%
O=C(CSc1ncc(-c2ccc(F)cc2)n1Cc1ccco1)Nc1nccs1	4.47%
Cc1onc(-c2ccccc2Cl)c1C(=O)N1CCN(S(=O)(=O)c2ccc(F)c(F)c2)CC1	11.5%
CCOc1ccc(CCNC(=O)c2ccc(C)c(NC3=NC4CS(=O)(=O)CC4S3)c2)cc1 (centres unmarked)	17.7%
Cn1ncc2c(Nc3cccc(C(=O)O)c3)ncnc21	4.58%
Cc1ccnc(NC(=O)c2c(-c3ccccc3Cl)noc2C)c1	5.64%
Cc1ccc(NC(=O)Cn2ccc(=O)[nH]c2=O)cc1	16.3%
Cc1ccccc1NC(=O)CSc1nc2ccccc2o1	-5.05%
COc1ccc(NC(=O)CSc2nnnn2C)cc1S(=O)(=O)N1CCCCC1	7.46%

Compound	hERG current change (%, negative = inhibition) at 1uM
O=c1c2ccc(Cl)cc2nc(-c2cccc(C(F)(F)F)c2)n1O	-2.49%
Cc1ccc(CN2CC(C(=O)NCCC3=CCCCC3)CC2=O)cc1 (centres unmarked)	0.947%
CCCCNS(=O)(=O)c1ccc2nc(-c3cccnc3)cc(C(=O)NCC(OC)OC)c2c1	0.0455%
Cc1ccc(OCc2cc(C(=O)Nc3ccccc3)oc2C)cc1	11.3%
O=S(=O)(c1ccccc1)N(Cc1ccccn1)Cc1ccccn1	19.1%
O=C(NCCCN1CCCC1=O)Nc1cc(Cl)ccc1Cl	14.8%
O=C(/C=C/c1ccc(Cl)cc1Cl)NCCN1CCOCC1	-7.32%
CN1CCN(c2ccc(S(=O)(=O)N3CCCCC3)cc2[N+](=O)[O-])CC1	-13.9%
COc1cccc2cc(C(=O)Nc3ccccc3C)/c(=N/NS(=O)(=O)c3ccccc3)oc12	12.9%
CCC(CO)NCc1ccc(OCC(=O)Nc2cccc(C(F)(F)F)c2)c(OC)c1 (centres unmarked)	-10.7%
COc1cccc(C(=O)C2CCCN(Cc3cn(C)nc3-c3ccccc3)C2)c1 (centres unmarked)	-18.2%
Cc1ccc(Cl)cc1Nc1nc(-c2sc(NC(=O)c3ccco3)nc2C)cs1	5.61%
CCCCn1c(C(C)NC(=O)COC)nc2ccccc21 (centres unmarked)	-13.4%
COc1ccc(S(=O)(=O)N2CCC(N3CCCC3)CC2)cc1	7.53%
CC/C(=N\NC(=O)Nc1ccccc1)c1ccccc1	-1.08%
O=C(NCCCN1CCOCC1)c1ccc(-c2ccc(Cl)cc2)o1	7.36%
O=C(CN1C(=O)c2ccccc2C1=O)Nc1cccc(Cl)c1	16%
O=C(CNC(=O)c1ccco1)OCc1ccc(Br)cc1	12.5%
COc1ccc(-n2nnnc2-c2cnc3cc4c(cc3c2C)OCO4)cc1	9.53%
Cc1cc(-c2csc(N)n2)c(C)n1-c1ccccc1	3.84%
